# Reference: the BET-seq Pho4 binding data (Le et al. 2018)
# The other results are listed elsewhere or left out. These are noisy estimates, calculated here from bound and input reads.
# Target: T1, Pho4 (S. cerevisiae) (UniProt P07270)
# T1 sequence: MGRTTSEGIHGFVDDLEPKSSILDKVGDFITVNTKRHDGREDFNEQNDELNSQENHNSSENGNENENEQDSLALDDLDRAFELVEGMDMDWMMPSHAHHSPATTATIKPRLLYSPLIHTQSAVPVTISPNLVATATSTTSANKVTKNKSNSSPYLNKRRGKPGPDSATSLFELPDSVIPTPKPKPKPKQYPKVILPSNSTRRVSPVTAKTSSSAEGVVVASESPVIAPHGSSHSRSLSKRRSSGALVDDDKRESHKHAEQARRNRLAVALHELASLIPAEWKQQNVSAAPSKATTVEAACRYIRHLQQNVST
# Experiment: relative binding free energy (BET-seq); higher = weaker binding
# Conditions: reference: library average
row,Sequence,relative binding free energy
1,TTTCTCACGTGATGGA,0.22 kcal/mol
2,GTGTCCACGTGGTGTG,0 kcal/mol
3,TACGTCACGTGGTGTT,0.11 kcal/mol
4,GTCAGCACGTGGTGAG,-0.1 kcal/mol
5,AGTCTCACGTGTTCTT,0.25 kcal/mol
6,TAGTGCACGTGTGGTC,0.1 kcal/mol
7,TTAGGCACGTGGGCGG,-0.28 kcal/mol
8,TAGGACACGTGAGAAT,0.41 kcal/mol
9,GAATTCACGTGAGCTT,0.56 kcal/mol
10,GAGAGCACGTGGTCTG,-0.07 kcal/mol
11,TTACGCACGTGTAGGT,-0.15 kcal/mol
12,CTAGGCACGTGAGAGG,0.06 kcal/mol
13,TTAGGCACGTGTGAGA,-0.07 kcal/mol
14,TAGGTCACGTGCGTAA,-0.02 kcal/mol
15,GACGGCACGTGTGGAG,0.09 kcal/mol
16,TGTGCCACGTGGTTAT,-0.15 kcal/mol
17,TGGGGCACGTGGTAAA,0 kcal/mol
18,TCGGGCACGTGGCATT,-0.14 kcal/mol
19,TAGGGCACGTGGACTA,-0.02 kcal/mol
20,GAGCGCACGTGGGTAG,-0.22 kcal/mol
21,AGTGACACGTGCTGGT,-0.11 kcal/mol
22,GGAGTCACGTGGGAGA,0.1 kcal/mol
23,GAAGGCACGTGCGGTG,-0.11 kcal/mol
24,GTATACACGTGAGTGT,0.3 kcal/mol
25,AGAAGCACGTGTGATA,0.31 kcal/mol
26,GTTGACACGTGCGAGT,-0.12 kcal/mol

row,Sequence,relative binding free energy
1,AAAAGCACGTGGCGGT,-0.17 kcal/mol
2,AGAAGCACGTGTAATG,0.01 kcal/mol
3,CGGAACACGTGAGGTG,0.27 kcal/mol
4,TGGGGCACGTGAGAGA,0.15 kcal/mol
5,TTGTCCACGTGAATTT,0.29 kcal/mol
6,GGGTGCACGTGGCGTT,-0.01 kcal/mol
7,GTAATCACGTGATATG,0.29 kcal/mol
8,AATCTCACGTGGTATG,0.09 kcal/mol
9,TATGTCACGTGAAAAT,0.3 kcal/mol
10,TATTGCACGTGCGGGT,-0.04 kcal/mol
11,TGGTTCACGTGCTCGT,0.14 kcal/mol
12,GTAGTCACGTGGGGAG,0.13 kcal/mol
13,GGTACCACGTGTGGAT,0.04 kcal/mol
14,TTTGTCACGTGTTAGT,0.14 kcal/mol
15,TTGGGCACGTGTATGT,-0.01 kcal/mol
16,GTTGTCACGTGGTTTC,0.06 kcal/mol
17,GGAGCCACGTGGCGTG,-0.14 kcal/mol
18,AAGGTCACGTGTTATT,0.21 kcal/mol
19,TACCGCACGTGAGGGT,0.16 kcal/mol
20,TGAAACACGTGTTGTA,-0.02 kcal/mol
21,CAAGTCACGTGTGTGA,0.06 kcal/mol
22,TGTAGCACGTGTGGTA,-0.03 kcal/mol
23,ATTCGCACGTGTTGCT,0 kcal/mol
24,TTTGGCACGTGTACAA,-0.03 kcal/mol
25,TTGGTCACGTGGGCCG,-0.08 kcal/mol
26,GTAGGCACGTGCTTTT,-0.03 kcal/mol

row,Sequence,relative binding free energy
1,ATTACCACGTGGTCGG,-0.14 kcal/mol
2,TTGTCCACGTGTGTTG,0.02 kcal/mol
3,TTTCGCACGTGGATGG,-0.01 kcal/mol
4,TATGCCACGTGGGCGT,-0.25 kcal/mol
5,GGATACACGTGAGTTA,0.22 kcal/mol
6,GGTAGCACGTGTAATG,0.08 kcal/mol
7,GTTTTCACGTGTGAGT,0.4 kcal/mol
8,AGTTTCACGTGCTGGC,0.24 kcal/mol
9,TGTAGCACGTGGTTGC,0 kcal/mol
10,TGTTACACGTGGAACG,0.23 kcal/mol
11,GTTTACACGTGGACAT,0.29 kcal/mol
12,GGTTGCACGTGGTCGA,-0.03 kcal/mol
13,TTTAGCACGTGTTGGC,-0.09 kcal/mol
14,TGGCTCACGTGGCATG,0.19 kcal/mol
15,ATTTCCACGTGGGTTG,-0.12 kcal/mol
16,GGCGGCACGTGGGGCG,-0.19 kcal/mol
17,TATGGCACGTGAGGCC,0.21 kcal/mol
18,GGTTACACGTGTCGAG,0.17 kcal/mol
19,TTTTCCACGTGTTTGT,0.07 kcal/mol
20,AAGGACACGTGTGTGG,-0.06 kcal/mol
21,TGGGGCACGTGTGCCA,-0.16 kcal/mol
22,TAGGCCACGTGGGGCT,-0.28 kcal/mol
23,GCTGGCACGTGGGTAT,-0.11 kcal/mol
24,TGCAGCACGTGGGTGA,-0.19 kcal/mol
25,TCTATCACGTGTAATT,0.21 kcal/mol
26,TAGTGCACGTGATCAT,0 kcal/mol

row,Sequence,relative binding free energy
1,TGGGACACGTGGCTGG,-0.11 kcal/mol
2,TGAATCACGTGGCGGG,0.07 kcal/mol
3,TTGATCACGTGAAGGA,0.4 kcal/mol
4,ATTTACACGTGGGTAC,0.07 kcal/mol
5,GGTGGCACGTGTTAAC,0.03 kcal/mol
6,GTTGTCACGTGGTAGA,0 kcal/mol
7,GATGGCACGTGAATGG,0.34 kcal/mol
8,TTAAGCACGTGATGTG,-0.01 kcal/mol
9,GGGTGCACGTGACTGA,0.16 kcal/mol
10,CAAATCACGTGTTTGG,0.11 kcal/mol
11,GTTAGCACGTGTCTTG,0.07 kcal/mol
12,AGTCACACGTGAGGGG,0.32 kcal/mol
13,GGTGTCACGTGGGTTT,0.1 kcal/mol
14,CTAGGCACGTGGGGGA,-0.33 kcal/mol
15,CTTAGCACGTGGTTGT,-0.14 kcal/mol
16,GTCATCACGTGGTTTG,0.16 kcal/mol
17,TGGGGCACGTGAAAGG,0.16 kcal/mol
18,GAAAGCACGTGGGAGG,-0.19 kcal/mol
19,GTGGTCACGTGCGAGT,0.11 kcal/mol
20,ACTAGCACGTGCTTGT,0.02 kcal/mol
21,ATGCGCACGTGTGGAA,-0.02 kcal/mol
22,AAGTTCACGTGTATTC,0.34 kcal/mol
23,TTTCACACGTGGATTT,0.09 kcal/mol
24,GTTAACACGTGGGAAT,0.12 kcal/mol
25,CGTTTCACGTGTTGTG,0.25 kcal/mol
26,GCGGTCACGTGTGTCG,0.35 kcal/mol

row,Sequence,relative binding free energy
1,TACGGCACGTGGTAAG,-0.13 kcal/mol
2,TTTGGCACGTGATTTG,-0.09 kcal/mol
3,GTGGGCACGTGGGGGG,-0.18 kcal/mol
4,AGTGCCACGTGGTTTA,-0.04 kcal/mol
5,TGGGGCACGTGACAGC,-0.03 kcal/mol
6,GTAACCACGTGGGTGA,-0.15 kcal/mol
7,TTAGTCACGTGCCGTG,0.03 kcal/mol
8,TGAAGCACGTGTGGAT,0.2 kcal/mol
9,TGCGTCACGTGTGCAA,0.15 kcal/mol
10,GAGCGCACGTGTTAGT,-0.13 kcal/mol
11,GTTAACACGTGTTTAG,0.06 kcal/mol
12,TGGTCCACGTGGGATT,-0.01 kcal/mol
13,TTGGTCACGTGCGCAG,0.05 kcal/mol
14,TGTATCACGTGTCGGG,0.09 kcal/mol
15,GTGGCCACGTGTTATA,-0.09 kcal/mol
16,TGTAGCACGTGGGTAC,-0.21 kcal/mol
17,TGTTACACGTGGAGGC,0.12 kcal/mol
18,TTAGGCACGTGGTATG,-0.19 kcal/mol
19,GGAGCCACGTGGGGGT,-0.04 kcal/mol
20,TGGGGCACGTGCTAAT,-0.22 kcal/mol
21,TGAGGCACGTGGTTCT,-0.13 kcal/mol
22,TCCTTCACGTGTGTGT,0.21 kcal/mol
23,TCTATCACGTGTTTAA,0.19 kcal/mol
24,GGAATCACGTGCGGCT,0.26 kcal/mol
25,ATATCCACGTGTGGTG,-0.02 kcal/mol
26,AGGTGCACGTGGGCTA,-0.24 kcal/mol

row,Sequence,relative binding free energy
1,GTGGCCACGTGGTAGG,-0.03 kcal/mol
2,CAGGACACGTGTAGGT,-0.02 kcal/mol
3,TAGTTCACGTGGTTTC,0.34 kcal/mol
4,TCGGGCACGTGAAGTG,0.17 kcal/mol
5,AGACTCACGTGGATGG,0.22 kcal/mol
6,TGACTCACGTGGGATA,0.13 kcal/mol
7,GTTTACACGTGGCAGG,0.14 kcal/mol
8,AGTGACACGTGCGGTG,-0.11 kcal/mol
9,GGTGACACGTGTTCGT,0.21 kcal/mol
10,CGTTACACGTGGGTGA,-0.05 kcal/mol
11,AGGTCCACGTGGATGT,-0.04 kcal/mol
12,GGTGGCACGTGGTCTT,-0.12 kcal/mol
13,GGTCACACGTGGGATT,0.08 kcal/mol
14,GAGTTCACGTGTTAAT,0.38 kcal/mol
15,ATTAGCACGTGCGGGA,-0.08 kcal/mol
16,CATTACACGTGTGGGT,0.22 kcal/mol
17,ATTGGCACGTGGGGTA,-0.21 kcal/mol
18,AAATTCACGTGTAAAT,0.38 kcal/mol
19,GATTTCACGTGAAAGG,0.41 kcal/mol
20,CTGGTCACGTGGTGAG,-0.09 kcal/mol
21,GTTTGCACGTGTAGGA,0.14 kcal/mol
22,AAGGGCACGTGTCAGT,-0.08 kcal/mol
23,GGAGACACGTGAGTTT,0.39 kcal/mol
24,TTTCCCACGTGGTGGT,-0.19 kcal/mol
25,CGTTTCACGTGGGGGG,0.1 kcal/mol
26,TAAGTCACGTGTGGCT,0.13 kcal/mol

row,Sequence,relative binding free energy
1,CGAGACACGTGTTGTT,-0.03 kcal/mol
2,ATCTTCACGTGAAGTT,0.31 kcal/mol
3,AGTATCACGTGGAGAA,0.23 kcal/mol
4,TGGTGCACGTGGAGAT,-0.02 kcal/mol
5,CGGTGCACGTGAGAGA,0.29 kcal/mol
6,ATGGGCACGTGGCTAT,-0.21 kcal/mol
7,AGGCGCACGTGATGTA,0.05 kcal/mol
8,CTGAACACGTGTGAGT,0.11 kcal/mol
9,ATAAACACGTGGGTGG,-0.2 kcal/mol
10,TAGCGCACGTGGATTG,-0.06 kcal/mol
11,GTTAACACGTGGGATA,-0.02 kcal/mol
12,GTGGGCACGTGTGGAG,0 kcal/mol
13,CTTTTCACGTGGCATT,0.21 kcal/mol
14,TTATGCACGTGTGTGT,0 kcal/mol
15,ATATTCACGTGTGGCA,0.31 kcal/mol
16,TAGGTCACGTGAATCG,0.32 kcal/mol
17,AAGTACACGTGTGGGA,0.09 kcal/mol
18,ATTCTCACGTGTTGCT,0.07 kcal/mol
19,GTGAGCACGTGGGTTT,-0.14 kcal/mol
20,TGATCCACGTGGTGTG,-0.17 kcal/mol
21,AGGTGCACGTGCGGGC,-0.02 kcal/mol
22,GGAGTCACGTGAAATG,0.47 kcal/mol
23,TTGATCACGTGTGAAT,0.25 kcal/mol
24,TATAGCACGTGTGAAT,0.11 kcal/mol
25,TGAGGCACGTGGCAAT,-0.04 kcal/mol
26,ATATGCACGTGGGTTC,-0.1 kcal/mol

row,Sequence,relative binding free energy
1,GGTTGCACGTGTCGTT,0.2 kcal/mol
2,TAGAGCACGTGAATGG,0.14 kcal/mol
3,ACTAACACGTGGGGGT,-0.23 kcal/mol
4,TCGTGCACGTGTTGAG,0.02 kcal/mol
5,TGTGACACGTGGTCGT,-0.07 kcal/mol
6,TTGTACACGTGTCAGG,0.04 kcal/mol
7,GGTAGCACGTGTAGCT,0.03 kcal/mol
8,TTACTCACGTGGTCTT,0.09 kcal/mol
9,ATTGTCACGTGCGGGA,-0.03 kcal/mol
10,AAAAACACGTGGGTGT,-0.17 kcal/mol
11,GTCATCACGTGAGGAG,0.4 kcal/mol
12,TGTTGCACGTGAATGG,0.29 kcal/mol
13,CGAGTCACGTGGTCGG,-0.03 kcal/mol
14,GAAGGCACGTGTATTG,-0.08 kcal/mol
15,CGTTACACGTGTAGGG,0.1 kcal/mol
16,GCGGACACGTGGATGT,0.04 kcal/mol
17,CGTCTCACGTGTAGGT,0.26 kcal/mol
18,TGCTGCACGTGCGGTG,0 kcal/mol
19,TGTGTCACGTGTTACG,0.11 kcal/mol
20,TTGGGCACGTGGGCCA,-0.1 kcal/mol
21,CGTTCCACGTGGTTTG,0.06 kcal/mol
22,TGGGCCACGTGTTATT,0.12 kcal/mol
23,AGGTTCACGTGAGTCA,0.26 kcal/mol
24,GCGGTCACGTGGGTTG,0.09 kcal/mol
25,TATTCCACGTGGGATT,0.07 kcal/mol
26,GTGGTCACGTGGCGTA,0.06 kcal/mol

row,Sequence,relative binding free energy
1,GCAGTCACGTGGTGTT,0.01 kcal/mol
2,GAGCACACGTGCGGGG,0.08 kcal/mol
3,TCAATCACGTGGGGTG,0 kcal/mol
4,GTGACCACGTGTGTTG,-0.02 kcal/mol
5,GATAGCACGTGGGTGT,-0.21 kcal/mol
6,TTGGGCACGTGGAGTG,-0.1 kcal/mol
7,AGAGGCACGTGGGAAA,-0.14 kcal/mol
8,GTACTCACGTGGTGGC,0.37 kcal/mol
9,TTTCCCACGTGTGGGG,-0.03 kcal/mol
10,GTCTGCACGTGGTTAT,0.03 kcal/mol
11,GGATTCACGTGATTAG,0.34 kcal/mol
12,CATGGCACGTGTGGTC,-0.11 kcal/mol
13,CGTTTCACGTGGGTGC,0.13 kcal/mol
14,TGGGACACGTGGGTTA,-0.05 kcal/mol
15,ACTGACACGTGGAGTG,0.03 kcal/mol
16,AGGATCACGTGGCGGT,0.02 kcal/mol
17,CGGATCACGTGGGAAT,0.2 kcal/mol
18,GGGGCCACGTGTTTCG,0.09 kcal/mol
19,TCTAGCACGTGGTGAG,-0.15 kcal/mol
20,CTTCACACGTGGTTGT,0.14 kcal/mol
21,TAAGTCACGTGCGTAG,0.22 kcal/mol
22,TAGTGCACGTGGGATG,-0.19 kcal/mol
